This is an account of results in the supplement of paper PMC4604168 (melanoma cell lines).

The other results are listed elsewhere or left out. Most values come without repeats; read them as rough.
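Note: cells treated in 1,536-well plates, then fixed and DAPI-stained, with nuclei counted from automated high-throughput microscope images.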

The subject of the assay is UACC62. Nature of the assay: cell count relative to DMSO control; melanoma cells; higher = more viable cells. The note with it: library dose: standard library concentration; 72 h.
As for `Cc1cc(Nc2cc(N3CCN(C)CC3)nc(Sc3ccc(NC(=O)C4CC4)cc3)n2)n[nH]1` [Tozasertib] + O=C(CCCCCCC(=O)Nc1ccccc1)NO [vorinostat] (first compound 0.03 µM, partner dose 0.4 µM), the cell count came out at 75.3%.

Take `Cc1cc(Nc2cc(N3CCN(C)CC3)nc(Sc3ccc(NC(=O)C4CC4)cc3)n2)n[nH]1` [Tozasertib] + Nc1nc(F)nc2c1ncn2[C@@H]1O[C@H](CO)[C@@H](O)[C@@H]1O [fludarabine] (first compound 0.03 µM, partner dose 1 µM): the cell count worked out at 72.6%.

`N#CC[C@H](C1CCCC1)n1cc(-c2ncnc3[nH]ccc23)cn1` [ruxolitinib] + C=CCNC1=C2C[C@@H](C)C[C@H](OC)[C@H](O)[C@@H](C)/C=C(\C)[C@H](OC(N)=O)[C@@H](OC)/C=C\C=C(/C)C(=O)NC(=CC1=O)C2=O [Tanespimycin] (first compound 5 µM, partner dose 0.01 µM) had a cell count of 59.2%.

As to `N#CC[C@H](C1CCCC1)n1cc(-c2ncnc3[nH]ccc23)cn1` [ruxolitinib] + CO[C@@H]1[C@H](N(C)C(=O)c2ccccc2)C[C@H]2O[C@]1(C)n1c3ccccc3c3c4c(c5c6ccccc6n2c5c31)C(=O)NC4 [Midostaurin] (first compound 5 µM, partner dose 0.4 µM), the cell count came out at 67.2%.

In turn, `Cc1cc(Nc2cc(N3CCN(C)CC3)nc(Sc3ccc(NC(=O)C4CC4)cc3)n2)n[nH]1` [Tozasertib] + COc1cc2c(Oc3ccc4[nH]c(C)cc4c3F)ncnc2cc1OCCCN1CCCC1 [cediranib] (first compound 0.03 µM, partner dose 2 µM) yielded a cell count of 58%.

`N#CC[C@H](C1CCCC1)n1cc(-c2ncnc3[nH]ccc23)cn1` [ruxolitinib] + O=C(/C=C/c1cccnc1)NCCCCC1CCN(C(=O)c2ccccc2)CC1 [FK866] (first compound 5 µM, partner dose 0.05 µM) returned a cell count of 108%.

Turning to `CC[C@]1(O)C[C@H]2CN(CCc3c([nH]c4ccccc34)[C@@](C(=O)OC)(c3cc4c(cc3OC)N(C=O)[C@H]3[C@@](O)(C(=O)OC)[C@H](OC(C)=O)[C@]5(CC)C=CCN6CC[C@]43[C@@H]65)C2)C1` [vincristine] + COc1cc(Nc2ncc(F)c(Nc3ccc4c(n3)NC(=O)C(C)(C)O4)n2)cc(OC)c1OC [Tamatinib] (first compound 0.0005 µM, partner dose 2 µM), the cell count was determined as 50%.

`N#CC[C@H](C1CCCC1)n1cc(-c2ncnc3[nH]ccc23)cn1` [ruxolitinib] + CC1(C)NC(=O)N(c2ccc([N+](=O)[O-])c(C(F)(F)F)c2)C1=O [nilutamide] (first compound 5 µM, partner dose 5 µM) showed a cell count of 78%.

The compound `CC[C@]1(O)C[C@H]2CN(CCc3c([nH]c4ccccc34)[C@@](C(=O)OC)(c3cc4c(cc3OC)N(C=O)[C@H]3[C@@](O)(C(=O)OC)[C@H](OC(C)=O)[C@]5(CC)C=CCN6CC[C@]43[C@@H]65)C2)C1` [vincristine] + CC1(C)NC(=O)N(c2ccc([N+](=O)[O-])c(C(F)(F)F)c2)C1=O [nilutamide] (first compound 0.0005 µM, partner dose 5 µM) displayed a cell count of 57.1%.

In turn, `N#CC[C@H](C1CCCC1)n1cc(-c2ncnc3[nH]ccc23)cn1` [ruxolitinib] + CC(C)C[C@H](NC(=O)[C@H](Cc1ccccc1)NC(=O)c1cnccn1)B(O)O [Bortezomib] (first compound 5 µM, partner dose 0.005 µM) returned a cell count of 60.6%.

`CC[C@]1(O)C[C@H]2CN(CCc3c([nH]c4ccccc34)[C@@](C(=O)OC)(c3cc4c(cc3OC)N(C=O)[C@H]3[C@@](O)(C(=O)OC)[C@H](OC(C)=O)[C@]5(CC)C=CCN6CC[C@]43[C@@H]65)C2)C1` [vincristine] + COC(=O)c1sccc1S(=O)(=O)Nc1ccc(Nc2ccccc2)cc1OC [GSK0660] (first compound 0.0005 µM, partner dose 5 µM) displayed a cell count of 64.8%.

For the compound `Cc1cc(Nc2cc(N3CCN(C)CC3)nc(Sc3ccc(NC(=O)C4CC4)cc3)n2)n[nH]1` [Tozasertib] + C[C@]1(c2nc3c(C(N)=O)cccc3[nH]2)CCCN1 [Veliparib] (first compound 0.03 µM, partner dose 7 µM), the cell count was 68%.
